# Results reported in the supplement of paper PMC9334596.
# “And” between values parts separate entries of the source, which are not always exact repeats. Equal values may be shown once. In all, about 5,300 compounds were measured (“PER2::LUC luminescence relative to vehicle control”: median about 0.96, highest 2% from about 1.3 on). The list shows a part of the results.
# Tested on: mPer2Luc MEF
# Assay: PER2::LUC luminescence relative to vehicle control (fold of vehicle); higher = higher PER2::LUC reporter signal
# Details: 10 µM
# Outline: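 The reported values are PER2::LUC luminescence as fold of vehicle control in mouse embryonic fibroblasts carrying the mPer2Luc reporter. Cells were seeded at ~3000 per well in 384-well plates in DMEM with 10% FBS at 37 °C and 5% CO2, and compounds were added at 10 μM 48 h later. ONE-Glo luminescence was read 24 h and 30 h after treatment.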
SMILES,PER2::LUC luminescence (time after treatment 24 h),PER2::LUC luminescence (time after treatment 30 h)
C[C@H](CCC(=O)NCCS(=O)(=O)O)[C@H]1CC[C@H]2[C@@H]3CC[C@@H]4C[C@H](O)CC[C@]4(C)[C@H]3C[C@H](O)[C@]12C,0.992,0.915
C[C@@H](O)[C@@H]1NC(=O)[C@H](CCCCN)NC(=O)[C@@H](Cc2c[nH]c3ccccc23)NC(=O)[C@H](Cc2ccccc2)NC(=O)[C@@H](NC(=O)[C@H](N)Cc2ccccc2)CSSC[C@@H](C(=O)N[C@H](CO)[C@@H](C)O)NC1=O,1.04,1.04
C[C@H](CCC(=O)O)[C@H]1CC[C@H]2[C@@H]3[C@@H](O)C[C@@H]4C[C@H](O)CC[C@]4(C)[C@H]3CC[C@]12C,0.988,1.06
O=C(CCCN1CCN(c2ccccn2)CC1)c1ccc(F)cc1,1,0.792
Cc1cc(NC(=O)Nc2ccc3c(ccn3C)c2)sn1,1.59,1.52
O=C(Nc1ccncc1)c1cc([N+](=O)[O-])ccc1Cl,1.18,1.22
CCCCC/C=C/C=C1/C(=O)C=C[C@@H]1C/C=C\CCCC(=O)O,1.08,0.962
NC[C@@H]1O[C@@H](O[C@H]2[C@H](O)[C@@H](O[C@H]3O[C@H](CO)[C@@H](O)[C@H](N)[C@H]3O)[C@H](N)C[C@@H]2N)[C@@H](O)[C@H](O)[C@H]1O,0.914,0.881
COCCCN1CCC(NC(=O)c2cc(Cl)c(N)c3c2OCC3)CC1,1.01,0.976
N[C@@H](CS(=O)O)C(=O)O,1.13,0.928
C[C@@H](CN1CCC(Cc2ccccc2)CC1)[C@@H](O)c1ccc(O)cc1,0.832,0.874
CNc1nc(Nc2cn(C(C)(C)C#N)nc2C)ncc1C(F)(F)F,1.01,1.03
CC1CC(OC(=O)c2ccccc2O)CC(C)(C)C1 (stereo not given),1.19,0.857
C=CC(=O)N1C/C(=C\c2ccc([N+](=O)[O-])cc2)C(=O)/C(=C/c2ccc([N+](=O)[O-])cc2)C1,0.912,0.857
COC(=O)[C@H](NC(=O)c1cc(-c2ccccc2)nc2ccccc12)c1ccccc1,1.05,0.83
COC(=O)C1=C(C#N)NC(C)=C(C(=O)OC(C)C)C1c1cccc([N+](=O)[O-])c1 (stereo not given),1.02,0.893
N#Cc1cc2nc(O)c(O)nc2cc1[N+](=O)[O-],0.923,0.774
COc1ccc(C2CC(=O)c3c(O)cc(OC4OC(COC5OC(C)C(O)C(O)C5O)C(O)C(O)C4O)cc3O2)cc1OC (stereo not given),0.918,0.791
CN(C)C(=O)[C@H](O)[C@H](Cc1ccccc1)NC(=O)c1cc2cc(Cl)ccc2[nH]1,1.1,1.07
O=C(Oc1cc(S(=O)(=O)c2ccccc2)ccc1[N+](=O)[O-])c1ccc(Cl)cc1,1,0.99
CCC(=O)NC1Cc2ccccc2C(c2ccccc2)C1 (stereo not given),0.844,0.992
Cc1cc(CN2CCN(c3c(Br)cnc4nc(-c5ccc(N6CCN(C)CC6)cc5)[nH]c34)CC2)no1,0.462,0.367
CC(=O)/C=C1/C(=O)N(C)c2ccccc21,0.94,0.79
CCN1CCN(Cc2ccc(C(=O)Nc3ccc(C)c(Oc4ccc5c(c4)CC(=O)N5)c3)cc2C(F)(F)F)CC1,0.251,0.3
COc1cc(N2CCOCC2)ccc1Nc1ncc(F)c(Nc2ccccc2NS(C)(=O)=O)n1,0.771,0.673

SMILES,PER2::LUC luminescence (time after treatment 24 h),PER2::LUC luminescence (time after treatment 30 h)
N[C@@H](Cc1cc(I)c(Oc2ccc(O)c(I)c2)c(I)c1)C(=O)O,1.11 and 0.582,1.19 and 1.01
CN1CCC(=C2c3ccccc3Sc3ccccc32)CC1,0.763,0.771
COC1=CC(=O)C(C(=O)c2ccccc2)=CC1=O,1.03,1.08
Cc1ccc(=O)n(-c2ccccc2)c1,0.986,1
NCCCCCCCCCCNCCCN,0.962,0.892
COc1ccccc1N1CCN(CCN(C(=O)c2ccc(F)cc2)c2ccccn2)CC1,0.998,1.09
c1ccc(-c2ccccn2)nc1,1.08,0.883
O=C(O)c1ccc2c(c1)nc(Nc1cccc(Cl)c1)c1ccncc12,0.795,1.39
CC1(C)O[C@@H]2C[C@H]3[C@@H]4CCC5=CC(=O)C=C[C@]5(C)[C@H]4[C@@H](O)C[C@]3(C)[C@]2(C(=O)CO)O1,0.604,1.01
C/C=C/C[C@@H](C)C(=O)[C@H]1C(=O)N[C@@H](C(C)C)C(=O)N(C)CC(=O)N(C)[C@@H](CC(C)C)C(=O)N[C@@H](C(C)C)C(=O)N(C)[C@@H](CC(C)C)C(=O)N[C@@H](C)C(=O)N[C@H](C)C(=O)N(C)[C@@H](CC(C)C)C(=O)N(C)[C@@H](CC(C)C)C(=O)N(C)[C@@H](C(C)C)C(=O)N1C,0.986,0.991
C[C@H](N)C(=O)N[C@@]1(C(=O)O)C[C@@H](Sc2nnc[nH]2)[C@H]2[C@H](C(=O)O)[C@H]21,1.01,0.993
COc1ccc(C=CC(=O)O)cc1OC,1.07,0.969
NCCCCCNCC12CC3CC(CC(C3)C1)C2,0.956,0.918
CCN(CC)CCOc1ccc2c(c1)C(=O)c1cc(OCCN(CC)CC)ccc1-2,0.704 and 0.553,0.781 and 0.595
Oc1ccc(Cn2cc[nH]c2=S)cc1,0.892,0.875
CCc1ccc2c(-c3cccc(Cl)c3)nc(=O)n(CC)c2n1,1.03,0.944
O=C(CCCCCCC(=O)Nc1ccccc1)NO,0.271,0.329
CC(C)ON([C@@H](C(=O)NO)C(C)C)S(=O)(=O)c1ccc(-c2ccccc2)cc1,1.04,0.961
C[C@H](CCC(=O)NCCC[N+](C)(C)CCCS(=O)(=O)[O-])[C@H]1CC[C@H]2[C@@H]3[C@H](O)C[C@@H]4C[C@H](O)CC[C@]4(C)[C@H]3C[C@H](O)[C@]12C,1.06,0.883
COc1ccc2c(=O)c(-c3ccc(O)cc3)coc2c1,1.39,1.62
C[C@H](Oc1ccc(S(C)(=O)=O)cc1C(=O)N1CCN(c2ncc(C(F)(F)F)cc2F)CC1)C(F)(F)F,0.848,0.812
NC[C@H]1O[C@H](O[C@H]2[C@H](O)[C@@H](O[C@H]3O[C@H](CO)[C@@H](O)[C@H](N)[C@H]3O)[C@H](N)C[C@@H]2N)[C@H](O)[C@@H](O)[C@@H]1O,0.835,0.97
COC(=O)C1=C(C)NC(C)=C([N+](=O)[O-])C1c1ccccc1C(F)(F)F (racemic),1.15,1.01
O=C(/C=C/c1ccc(O)c(O)c1)c1ccc(O)cc1O,1.04,1.13
CC[C@H]1OC(=O)C[C@@H](O)[C@H](C)[C@@H](O[C@@H]2O[C@H](C)[C@@H](O[C@H]3C[C@@](C)(O)[C@@H](O)[C@H](C)O3)[C@H](N(C)C)[C@H]2O)[C@@H](CC=O)C[C@@H](C)C(=O)/C=C/C(C)=C/[C@@H]1CO[C@@H]1O[C@H](C)[C@@H](O)[C@@H](OC)[C@H]1OC,0.95 and 1.18,1.17 and 1.33

SMILES,PER2::LUC luminescence (time after treatment 24 h),PER2::LUC luminescence (time after treatment 30 h)
C[C@]12C[C@H](O)[C@H]3[C@@H](CCC4=CC(=O)CC[C@@]43C)[C@@H]1CC[C@@H]2C(=O)CO,1.1,0.939
Cc1ccc(NC(=O)c2cccc(N(C)C)c2)cc1NC(=O)c1ccc(O)cc1,1.1,1.56
O=C1NCCc2[nH]c(-c3ccncc3)cc21,0.478,0.615
COC(=O)C1=C(C)NC(C)=C(C(=O)OC2CCCN(Cc3ccccc3)C2)C1c1cccc([N+](=O)[O-])c1 (stereo not given),1.14,1.13
COC(=O)CC1C(C)(C)C(OC(C)=O)[C@@H]2[C@@H](OC(C)=O)[C@]34O[C@@]2(O)[C@]1(C)C3CC[C@]1(C)C4=CC(=O)O[C@H]1c1ccoc1 (stereo not given in full),0.924,0.919
CCCCOc1ccc(CC/C=C2\SC(=O)N(CCN)C2=O)cc1,0.952,1.05
CCNC(=O)CCC/C=C\C[C@@H]1[C@@H](/C=C/[C@@H](O)CCc2ccccc2)[C@H](O)C[C@@H]1O,0.997,1.05
c1ccc2c3c([nH]c2c1)[C@H]1[C@@H]2CC[C@@H]([C@@H]4CCCN[C@@H]42)N1CC3,1.23,1
O=c1sn(-c2cccc3ccccc23)c(=O)n1Cc1ccccc1,1.11,1.13
Nc1c2c(nc3ccccc13)CCCC2,0.921 and 0.49,0.916 and 0.915
CCCCC(CC)COC(=O)C(C#N)=C(c1ccccc1)c1ccccc1 (stereo not given),1.01 and 1.15,1.08 and 1.14
NC[C@H]1CC[C@H](C(=O)Oc2ccc(CCC(=O)O)cc2)CC1,0.828,0.901
Cc1noc(-c2ccc(-c3ccc(CC(=O)O)cc3)cc2)c1NC(=O)O[C@H](C)c1ccccc1,1.09,1.1
O=c1cc(-c2ccccc2)oc2cc(O)cc(O)c12,1.55 and 1.53,2.06 and 1.73
O=C(O)[C@@H]1CSCN1,1.09,0.907
C=C[C@@]1(C)CC(=O)[C@]2(O)[C@@]3(C)[C@@H](O)CCC(C)(C)[C@@H]3[C@H](O)[C@H](OC(C)=O)[C@@]2(C)O1,0.796 and 0.475,0.695 and 0.73
CN(Cc1cnc2nc(N)nc(N)c2n1)c1ccc(C(=O)NC(CCC(=O)O)C(=O)O)cc1 (racemic),0.976,0.744
O=C(CCCCCN1C(=O)c2cccc3cccc(c23)C1=O)NO,0.328,0.286
Cc1cc(OCCCS(C)(=O)=O)cc(C)c1-c1cccc(COc2ccc3c(c2)OC[C@H]3CC(=O)O)c1,1.26,1.21
CCN(CC)C(=S)SSC(=S)N(CC)CC,0.533,0.829
C/C(=C(\CCOP(=O)(O)O)SC(=O)c1ccccc1)N(C=O)Cc1cnc(C)nc1N,0.956,0.785
Nc1ccc2cn[nH]c2c1,1,1
COc1cc2/c(=N/c3ccc(Br)cc3F)nc[nH]c2cc1OCC1CCN(C)CC1,0.542,0.571
OC1c2ccccc2N=C2CCCN21 (stereo not given),0.854,0.868
COc1cc2c3cc1Oc1c(OC)c(OC)cc4c1[C@@H](Cc1ccc(OC(=O)c5ccc([N+](=O)[O-])cc5)c(c1)Oc1ccc(cc1)C[C@@H]3N(C)CC2)N(C)CC4,0.754,0.76
